# According to PubChem BioAssay (NCATS):
# Inconclusive means that the source gave no clear call. Such entries were picked first, then a sample of the others. Potencies of inconclusive entries are doubtful fits and often do not repeat. Activity calls are given as the source filed them. Calls follow the shape of the dose curve; as a rule, active = well fitted cell-killing curve with a large enough effect; inconclusive = small, poorly fitted or top-dose-only effect; inactive = flat fitted curve, though single readings scatter.
# Assay: Cell Viability - Mesenchymal (AID 546);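 also: cells exposed to compound for 40 hours before reading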;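 as to activity change, negative = cytotoxicity: 0% = DMSO only and -100% = 100 µM tamoxifen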
# Settings: mesenchymal cells viability, qHTS; activity change, negative = cytotoxicity: at 91.7 µM (top of the series)
# Excerpt: NIH Chemical Genomics Center [NCGC]
# NIH Molecular Libraries Screening Centers Network [MLSCN]
# National Institutes of Environmental Health Sciences [NIEHS]
# National Toxicology Program [NTP]
# We have developed a 1536-well cell-based assay for quantitative high throughput screening (qHTS) against a number of cell lines to determine in vitro cytotoxicity of small molecules. This particular assay uses the kidney mesenchymal cell line which is derived from normal human renal glomeruli.
# NCGC Assay Protocol Summary:
# The CellTiter-Glo luminescent cell viability assay (Promega) is a homogeneous method to measure the number of viable cells in culture. The end point readout of this assay is based on quantitation of intracellular ATP, an indicator of metabolic activity, using the luciferase reaction. Luciferase catalyzes the oxidation of beetle Luciferin to oxyluciferin and light in the presence of ATP. The luminescent signal is proportional to amount of ATP present.
# Using the CellTiter-Glo luminescent cell viability assay, the amount of cellular ATP was measured in the kidney mesenchymal cell line with complete culture medium following compound treatment for 40 hours. The assay was performed in opaque white Kalypsys 1536-well plates. In the screen, tamoxifen and doxorubicin were used as positive controls. Library compounds were measured for their ability to cause acute toxicity in the cell line, as reflected by a decrease in intracellular ATP levels, in a concentration-dependent manner. […] AC50 values were determined from concentration-response data modeled with the standard Hill equation.
# qHTS protocol for CellTiter Glo kidney mesenchymal cells cellular assay
# [Step] [Parameter] [Value] [Description]
# 1. Reagent; 5 uL; 1000 kidney mesenchymal cells/well
# 2. Time; 5 hr; 37 °C incubation
# 4. Controls; 23 nL; Tamoxifen 0.34 uM to 100 uM & Doxorubicin 0.02 nM to 100 uM
# 5. Time; 40 hr; 37 °C incubation
# 6. Reagent; 5 uL; CellTiter Glo reagent
# 7. Time; 20 min; Room Temperature
# 8. Detection; Luminescence; Viewlux plate reader
# Keywords: cell viability, cytotoxicity, Kidney mesenchymal cell line, luminescence, NTPHTS, NTPHTS_NCGC, NIEHS, EPA, DSSTox, MLSMR, MLSCN, NIH Roadmap, qHTS, NCGC
# Potency is read from the fitted curve at half-maximal effect; tags tell the direction and shape of the fitted curve.
Compound,"activity change, negative = cytotoxicity",Potency
Cn1cnc([N+](=O)[O-])c1Sc1ncnc2nc[nH]c12,inconclusive: -51.5%,–
NC(=NCCCCCCN=C(N)/N=C(\N)Nc1ccc(Cl)cc1)/N=C(\N)Nc1ccc(Cl)cc1,–,active: 31.6 µM
Oc1c(I)cc(Cl)c2cccnc12,inconclusive: -63.5%,–
Oc1ccc(Cl)cc1Sc1cc(Cl)ccc1O,inconclusive: -54.5%,–
N=C(N)c1ccc(OCCCCCOc2ccc(C(=N)N)cc2)cc1,inconclusive: -65.2%,–
Cc1c(O)cccc1C(=O)N[C@@H](CSc1ccccc1)[C@H](O)CN1C[C@H]2CCCC[C@H]2C[C@H]1C(=O)NC(C)(C)C,inconclusive: -71.5%,–
Nc1c2ccccc2nc2ccccc12,inconclusive: -43.3%,–
COc1cccc2c1C(=O)c1c(O)c3c(c(O)c1C2=O)C[C@@](O)(C(C)=O)C[C@@H]3O[C@H]1C[C@H](N)[C@H](O)[C@H](C)O1,–,"inconclusive: 31.6 µM [falling, full curve, poor fit]"
COc1cccc2c1C(=O)c1c(O)c3c(c(O)c1C2=O)C[C@@](O)(C(=O)CO)C[C@@H]3O[C@H]1C[C@H](N)[C@H](O)[C@H](C)O1,–,"inconclusive: 0.0398 µM [falling, full curve, poor fit]"
CC(C)(C)CC(C)(C)c1ccc(OCCOCC[N+](C)(C)Cc2ccccc2)cc1,active: -104%,–
